The list shows a part of the results. Most values come without repeats; read them as rough.
These compounds were tested on A2058 (assay: cell count relative to DMSO control; melanoma cells; higher = more viable cells). Conditions: library dose: low library concentration; 72 h.
With `CC(=O)O[C@@]12CO[C@@H]1C[C@H](O)[C@@]1(C)C(=O)[C@H](O)C3=C(C)[C@@H](OC(=O)[C@H](O)[C@@H](NC(=O)OC(C)(C)C)c4ccccc4)C[C@@](O)([C@@H](OC(=O)c4ccccc4)[C@H]21)C3(C)C` [Docetaxel] + O=S(=O)(c1ccccc1)N(CC(F)(F)F)c1ccc(C(O)(C(F)(F)F)C(F)(F)F)cc1 [T0901317] (first compound 0.0001 µM, partner dose 1.4 µM) the cell count was 10.3%. For `Nc1nc(F)nc2c1ncn2[C@@H]1O[C@H](CO)[C@@H](O)[C@@H]1O` [fludarabine] + CCN(CC)CCCCNc1ncc2cc(-c3cc(OC)cc(OC)c3)c(NC(=O)NC(C)(C)C)nc2n1 [PD173074] (first compound 0.2 µM, partner dose 0.1 µM), the cell count was 76.3%. `CC(=O)c1c(C)c2cnc(Nc3ccc(N4CCNCC4)cn3)nc2n(C2CCCC2)c1=O` [palbociclib] + N#Cc1c(O)c2c(-c3ccc(-c4ccccc4O)cc3)csc2[nH]c1=O [A769662] (first compound 0.04 µM, partner dose 2 µM) showed a cell count of 103%. `CC(=O)O[C@@]12CO[C@@H]1C[C@H](O)[C@@]1(C)C(=O)[C@H](O)C3=C(C)[C@@H](OC(=O)[C@H](O)[C@@H](NC(=O)OC(C)(C)C)c4ccccc4)C[C@@](O)([C@@H](OC(=O)c4ccccc4)[C@H]21)C3(C)C` [Docetaxel] + Oc1cc(-c2nc(-c3ccccc3)[nH]c2-c2ccncc2)ccc1Cl [L779450] (first compound 0.0001 µM, partner dose 0.2 µM) was tested, and the cell count was 7.82%. For `CC(=O)c1c(C)c2cnc(Nc3ccc(N4CCNCC4)cn3)nc2n(C2CCCC2)c1=O` [palbociclib] + O=C(O)C(=O)Nc1sc2c(c1C(=O)O)CCNC2 [TCS401] (first compound 0.04 µM, partner dose 1.66667 µM), the cell count was 106%. Compound `Nc1ncn([C@H]2C[C@H](O)[C@@H](CO)O2)c(=O)n1` [decitabine] + COc1cc(N2CCC(N3CCN(C)CC3)CC2)ccc1Nc1ncc(Cl)c(Nc2ccccc2S(=O)(=O)C(C)C)n1 [NVP-TAE684] (first compound 0.1 µM, partner dose 0.08 µM) has a cell count of 78.3%. Work on `CC(=O)c1c(C)c2cnc(Nc3ccc(N4CCNCC4)cn3)nc2n(C2CCCC2)c1=O` [palbociclib] + CCCCCCCCCCCC1=C(O)C(=O)C=C(O)C1=O [Embelin] (first compound 0.04 µM, partner dose 1.2 µM) yielded a cell count of 85.3%. Work on `CC(=O)O[C@@]12CO[C@@H]1C[C@H](O)[C@@]1(C)C(=O)[C@H](O)C3=C(C)[C@@H](OC(=O)[C@H](O)[C@@H](NC(=O)OC(C)(C)C)c4ccccc4)C[C@@](O)([C@@H](OC(=O)c4ccccc4)[C@H]21)C3(C)C` [Docetaxel] + O=C1NC(=O)/C(=C/c2ccc(-c3ccc(F)cc3O)o2)S1 [AS252424] (first compound 0.0001 µM, partner dose 1 µM) yielded a cell count of 8.81%. `CC(=O)O[C@@]12CO[C@@H]1C[C@H](O)[C@@]1(C)C(=O)[C@H](O)C3=C(C)[C@@H](OC(=O)[C@H](O)[C@@H](NC(=O)OC(C)(C)C)c4ccccc4)C[C@@](O)([C@@H](OC(=O)c4ccccc4)[C@H]21)C3(C)C` [Docetaxel] + O=c1cc(-c2cccc3c2Sc2ccccc2S3)oc(N2CCOCC2)c1 [KU55933] (first compound 0.0001 µM, partner dose 1 µM) showed a cell count of 4.94%. Compound `Nc1nc(F)nc2c1ncn2[C@@H]1O[C@H](CO)[C@@H](O)[C@@H]1O` [fludarabine] + O=C(Nc1ccccc1)c1cc([N+](=O)[O-])ccc1Cl [GW9662] (first compound 0.2 µM, partner dose 2 µM) has a cell count of 96.1%. `Nc1ncn([C@H]2C[C@H](O)[C@@H](CO)O2)c(=O)n1` [decitabine] + COc1ccc2c(c1)CCC1C2CCC2(C)C(NCCCCCCN3C(=O)C=CC3=O)CCC12 [U73122] (first compound 0.1 µM, partner dose 0.4 µM) showed a cell count of 81%. In the case of `Nc1ccn([C@@H]2O[C@H](CO)[C@@H](O)C2(F)F)c(=O)n1` [gemcitabine] + CCCCCCCCCCCC1=C(O)C(=O)C=C(O)C1=O [Embelin] (first compound 0.0004 µM, partner dose 1.2 µM), the cell count is reported as 94.6%. Work on `Nc1ccn([C@@H]2O[C@H](CO)[C@@H](O)C2(F)F)c(=O)n1` [gemcitabine] + COC(=O)c1sccc1S(=O)(=O)Nc1ccc(Nc2ccccc2)cc1OC [GSK0660] (first compound 0.0004 µM, partner dose 1 µM) yielded a cell count of 92.8%.

What follows are compounds tested on C32 in the same assay as above. Conditions: library dose: low library concentration; 72 h.
`Nc1ccn([C@@H]2O[C@H](CO)[C@@H](O)C2(F)F)c(=O)n1` [gemcitabine] + O=c1cc(-c2cccc3c2Sc2ccccc2S3)oc(N2CCOCC2)c1 [KU55933] (first compound 0.0004 µM, partner dose 1 µM) showed a cell count of 86.9%. `Nc1nc(F)nc2c1ncn2[C@@H]1O[C@H](CO)[C@@H](O)[C@@H]1O` [fludarabine] + Oc1cc(-c2nc(-c3ccccc3)[nH]c2-c2ccncc2)ccc1Cl [L779450] (first compound 0.2 µM, partner dose 0.2 µM) showed a cell count of 97.6%. `Nc1ccn([C@@H]2O[C@H](CO)[C@@H](O)C2(F)F)c(=O)n1` [gemcitabine] + CCN(CC)CCCCNc1ncc2cc(-c3cc(OC)cc(OC)c3)c(NC(=O)NC(C)(C)C)nc2n1 [PD173074] (first compound 0.0004 µM, partner dose 0.1 µM) gave a cell count of 98.1%. Compound `CC(=O)O[C@@]12CO[C@@H]1C[C@H](O)[C@@]1(C)C(=O)[C@H](O)C3=C(C)[C@@H](OC(=O)[C@H](O)[C@@H](NC(=O)OC(C)(C)C)c4ccccc4)C[C@@](O)([C@@H](OC(=O)c4ccccc4)[C@H]21)C3(C)C` [Docetaxel] + CCCCCCCCCCCC1=C(O)C(=O)C=C(O)C1=O [Embelin] (first compound 0.0001 µM, partner dose 1.2 µM) has a cell count of 91.1%. `Nc1nc(F)nc2c1ncn2[C@@H]1O[C@H](CO)[C@@H](O)[C@@H]1O` [fludarabine] + O=c1cc(-c2cccc3c2Sc2ccccc2S3)oc(N2CCOCC2)c1 [KU55933] (first compound 0.2 µM, partner dose 1 µM) was tested, and the cell count was 106%. `CO[C@H]1C[C@@H]2CC[C@@H](C)[C@@](O)(O2)C(=O)C(=O)N2CCCC[C@H]2C(=O)O[C@H]([C@H](C)C[C@@H]2CC[C@@H](OCCO)[C@H](OC)C2)CC(=O)[C@H](C)/C=C(\C)[C@@H](O)[C@@H](OC)C(=O)[C@H](C)C[C@H](C)/C=C/C=C/C=C/1C` [everolimus] + O=c1cc(-c2cccc3c2Sc2ccccc2S3)oc(N2CCOCC2)c1 [KU55933] (first compound 0.02 µM, partner dose 1 µM) was tested, and the cell count was 93.7%. In the case of `CC(=O)O[C@@]12CO[C@@H]1C[C@H](O)[C@@]1(C)C(=O)[C@H](O)C3=C(C)[C@@H](OC(=O)[C@H](O)[C@@H](NC(=O)OC(C)(C)C)c4ccccc4)C[C@@](O)([C@@H](OC(=O)c4ccccc4)[C@H]21)C3(C)C` [Docetaxel] + COc1ccc2c(c1)CCC1C2CCC2(C)C(NCCCCCCN3C(=O)C=CC3=O)CCC12 [U73122] (first compound 0.0001 µM, partner dose 0.4 µM), the cell count is reported as 85.8%. With `CC(=O)O[C@@]12CO[C@@H]1C[C@H](O)[C@@]1(C)C(=O)[C@H](O)C3=C(C)[C@@H](OC(=O)[C@H](O)[C@@H](NC(=O)OC(C)(C)C)c4ccccc4)C[C@@](O)([C@@H](OC(=O)c4ccccc4)[C@H]21)C3(C)C` [Docetaxel] + O=C(O)C(=O)Nc1sc2c(c1C(=O)O)CCNC2 [TCS401] (first compound 0.0001 µM, partner dose 1.66667 µM) the cell count was 75.6%. For `CO[C@H]1C[C@@H]2CC[C@@H](C)[C@@](O)(O2)C(=O)C(=O)N2CCCC[C@H]2C(=O)O[C@H]([C@H](C)C[C@@H]2CC[C@@H](OCCO)[C@H](OC)C2)CC(=O)[C@H](C)/C=C(\C)[C@@H](O)[C@@H](OC)C(=O)[C@H](C)C[C@H](C)/C=C/C=C/C=C/1C` [everolimus] + c1cc(-c2cnn3cc(-c4ccc(OCCN5CCCCC5)cc4)cnc23)ccn1 [Dorsomorphin] (first compound 0.02 µM, partner dose 0.4 µM), the cell count was 96.8%. `CC(=O)c1c(C)c2cnc(Nc3ccc(N4CCNCC4)cn3)nc2n(C2CCCC2)c1=O` [palbociclib] + Oc1cc(-c2nc(-c3ccccc3)[nH]c2-c2ccncc2)ccc1Cl [L779450] (first compound 0.04 µM, partner dose 0.2 µM) was tested, and the cell count was 77.3%. For `Nc1ncn([C@H]2C[C@H](O)[C@@H](CO)O2)c(=O)n1` [decitabine] + O=C(Nc1ccccc1)c1cc([N+](=O)[O-])ccc1Cl [GW9662] (first compound 0.1 µM, partner dose 2 µM), the cell count was 96.2%. `Nc1nc(F)nc2c1ncn2[C@@H]1O[C@H](CO)[C@@H](O)[C@@H]1O` [fludarabine] + c1cc(-c2cnn3cc(-c4ccc(OCCN5CCCCC5)cc4)cnc23)ccn1 [Dorsomorphin] (first compound 0.2 µM, partner dose 0.4 µM) showed a cell count of 77.9%. Compound `CO[C@H]1C[C@@H]2CC[C@@H](C)[C@@](O)(O2)C(=O)C(=O)N2CCCC[C@H]2C(=O)O[C@H]([C@H](C)C[C@@H]2CC[C@@H](OCCO)[C@H](OC)C2)CC(=O)[C@H](C)/C=C(\C)[C@@H](O)[C@@H](OC)C(=O)[C@H](C)C[C@H](C)/C=C/C=C/C=C/1C` [everolimus] + O=C(Nc1ccccc1)c1cc([N+](=O)[O-])ccc1Cl [GW9662] (first compound 0.02 µM, partner dose 2 µM) has a cell count of 97.4%.

Source: the supplement of paper PMC4604168 (melanoma cell lines)
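Also: cell number obtained by counting DAPI-stained nuclei in high-throughput microscope images with image analysis software, screen run in 1,536-well plates.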
